# The whole screen tested about 360,000 compounds, of which about 2,600 (0.72%) were called active. The inconclusive results got no clear call from the source; some entries with a clear call stand among them for comparison. Calls come from the whole dose curve; as a rule, active = well fitted inhibition curve with a large enough effect; inconclusive = small, poorly fitted or top-dose-only effect; inactive = no such curve, though single readings can be large or run the other way. Potencies of inconclusive entries are doubtful fits and often do not repeat. Some compounds were tested as several samples or in several runs, with calls that do not always agree.
# Test: Primary qHTS for Inhibitors of ATXN expression; note: nearly all actives have a fitted effect of over 55% in size
# Conditions: HEK-293 ATXN2-luciferase reporter, luminescence, 24 h; activity change, negative = inhibition: at 57 µM (top of the series)
# Outline: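 qHTS (up to 57 uM final) was run with 24 h compound exposure of reporter cells at 37 °C. Each well was multiplexed: SteadyGlo luminescence measured ATXN2-luciferase expression after a fluorogenic Gly-Phe-AFC viability readout (25 uM final).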
# % is set by controls: 0 for no effect and ±100 for the full control effect; potency is the fitted concentration of half-maximal effect; tags give direction and shape of the fitted curve.
SMILES,Potency,"activity change, negative = inhibition"
O=C(NC(c1ccc(Cl)cc1)c1cccnc1)C1CCN(CCOc2ccc(Cl)cc2Cl)CC1 (stereo unspecified),"inconclusive: 35.5 µM [inhibitor, single point]",–
COc1ccc(-n2c(CNc3ccc(C)cc3)nnc2SCC(=O)Nc2nc(-c3ccccc3)cs2)cc1,active: 17.8 µM,–
CS(=O)(=O)N1CCc2c(-c3cnc(N)nc3)nc(N3CCOCC3)nc21,"inconclusive: 15.3 µM [inhibitor, partial curve]",–
O=C(N/N=C/c1cc(Br)cc([N+](=O)[O-])c1O)c1ccc(NC(=O)c2ccc(F)cc2)cc1,"inconclusive: 7.08 µM [inhibitor, partial curve]",–
CCCOC(=O)c1ccc(Oc2c(-c3ccc(OC)cc3O)n[nH]c2C)cc1,"inconclusive: 39.8 µM [inhibitor, single point]",–
COc1ccc(C(C)=O)cc1CSc1nnc(-c2ccccc2O)n1-c1ccccc1,inactive,–
Cc1onc(-c2ccccc2)c1C(=O)NCCCc1ccccc1,"inconclusive: 37.7 µM [inhibitor, single point]",–
CC1(C)CC[C@]2(C(=O)O)CC[C@]3(C)C(=CCC4[C@@]5(C)CC[C@H](O)C(C)(C)C5[C@H](O)C[C@]43C)[C@@H]2C1 (stereo partly specified),"inconclusive: 35.5 µM [inhibitor, single point]",–
COc1ccc(C)cc1NC(=O)CNC(=O)c1sc2ccccc2c1Cl,"inconclusive: 12.6 µM [inhibitor, partial curve, poor fit]",–
CCCN(CCC)C(=O)CSc1c2c(nc3ccc(Cl)cc13)CCCC2,"inconclusive: 31.6 µM [inhibitor, single point]",–
CC(=O)[C@]1(O)Cc2c(O)c3c(c(O)c2[C@@H](O[C@H]2C[C@H](N)[C@H](O)[C@H](C)O2)C1)C(=O)c1ccccc1C3=O,active: 12.6 µM,–
CCOC(=O)c1sc(N2C(=O)C(O)=C(C(=O)c3ccc(C)o3)C2c2cccc([N+](=O)[O-])c2)nc1C (stereo unspecified),inactive,–
O=[N+]([O-])c1cc(-c2nc(-c3ccccc3)no2)ccc1NCc1cccnc1,inactive,–
COc1ccc(-c2cc(=Nc3ccc(C)cc3)c3ccccc3o2)cc1,"inconclusive: 22.4 µM [inhibitor, single point]",–
Cc1cccc(N2C(=O)CC(Sc3nc(-c4ccccc4)c4cc(Cl)ccc4n3)C2=O)c1 (stereo unspecified),inactive,–
CC(=O)c1cccc(-c2ccnc3c2CC(C(=O)Nc2ccc(F)c(Cl)c2)O3)c1 (stereo unspecified),"inconclusive: 25.1 µM [inhibitor, partial curve]",–
CS(=O)(=O)N(Cc1ccccc1)c1ccc(C(=O)NCc2cccnc2)cc1,"inconclusive: 20 µM [inhibitor, single point]",–
O=C(OCn1ncc(Br)c(Br)c1=O)c1ccc(F)cc1,active: 7.94 µM,–
C[n+]1c2n(c3ccccc31)N=C(c1ccccc1)CS2,"inconclusive: 11.9 µM [inhibitor, partial curve, poor fit]",–
C=CCc1cccc(CNc2nc3ccccc3n2C(C)C)c1O,active: 31.6 µM,–
Cc1ccc(OCCN2CCN(C(=O)CCC(=O)Nc3nnc(C(C)C)s3)CC2)cc1,inactive,–
CC(Oc1cccc(Cl)c1)C(=O)N(C)CC(=O)Nc1ccc(N2CCOCC2)cc1 (stereo unspecified),inactive,–

SMILES,Potency,"activity change, negative = inhibition"
CCCCCC(=O)N1C[C@H](n2cc(-c3ccc(F)cc3)nn2)[C@@H](O)C[C@@H]1c1ccc(C)cc1,"inconclusive: 39.8 µM [inhibitor, single point]",–
O=C(N/N=C/c1ccc([N+](=O)[O-])s1)c1ccccc1,"inconclusive: 10 µM [inhibitor, partial curve, poor fit]",–
Nc1nc(-c2ccccn2)nc(N)c1Cc1ccc(Cl)cc1Cl,"inconclusive: 17.8 µM [inhibitor, partial curve, poor fit]",–
Cc1cc(OCc2cc(C(=O)NC(C)c3c(C)nn(C)c3C)no2)cc(C)c1Cl (stereo unspecified),"inconclusive: 28.2 µM [inhibitor, partial curve, poor fit]",–
CCCOc1ccc(/C=N/NC(=O)CN(c2ccc(OCC)cc2)S(C)(=O)=O)cc1,inactive,–
COc1ccc(C(=O)Nc2ccc(Cl)c(S(=O)(=O)Nc3ccccc3OC)c2)cc1,"inconclusive: 17.8 µM [inhibitor, partial curve, poor fit]",–
O=c1c2ccc([N+](=O)[O-])cc2ncn1CCOc1cccc(Br)c1,inactive,–
C=CCn1c(-c2csc(-c3ccc(OC)c(OC)c3)n2)n[nH]c1=S,inactive,–
CN(C)S(=O)(=O)c1cccc(COC(=O)c2cc([N+](=O)[O-])ccc2N2CCOCC2)c1,"inconclusive: 3.55 µM [inhibitor, partial curve, poor fit]",–
O=C(Nc1ccc(-c2nc3ccccc3o2)cc1)c1cc(-n2cnnc2)ccc1Cl,"inconclusive: 39.8 µM [inhibitor, single point]",–
CCOC(=O)C1=C(CCl)NC(=O)NC1c1ccc2c(c1)OCO2 (stereo unspecified),inactive,–
Cc1cc(NC(=O)/C=C/c2cccc(Cl)c2)n(-c2nc3ccccc3[nH]2)n1,"inconclusive: 39.8 µM [inhibitor, single point]",–
COc1cc2[nH]c(=S)n(Cc3ccc(F)cc3)c(=O)c2cc1OC,"inconclusive: 13.4 µM [inhibitor, partial curve]",–
Cc1c(N=C2C=CC(=O)c3ccccc32)c(=O)n(-c2ccccc2)n1C,"inconclusive: 26.7 µM [inhibitor, partial curve, poor fit]",–
CCCCN(C(=O)c1cc(-c2ccc(F)cc2)nc2ccccc12)c1c(N)n(CCCC)c(=O)[nH]c1=O,"inconclusive: 25.1 µM [inhibitor, single point]",–
O=C(Nc1ccc(C(F)(F)F)cc1-c1ccccc1)c1ccccc1,"inconclusive: 39.8 µM [inhibitor, single point]",–
CCOC(=O)c1c(C)[nH]c(C)c1C(=O)CSc1nc2ccccc2c(=O)n1-c1ccc(Cl)cc1,"inconclusive: 28.2 µM [inhibitor, partial curve]",–
CCNS(=O)(=O)c1ccc(CCC(=O)Nc2cc(Cl)ccc2Oc2ccccc2)cc1,"inconclusive: 31.6 µM [inhibitor, single point]",–
FC(F)(F)c1cccc(NC(=S)Nc2cccc(Cl)c2)c1,"inconclusive: 39.8 µM [inhibitor, partial curve, poor fit]",–
CC(=O)NCCNC(=O)C1(C)Cc2c(-c3ccccc3)ccnc2O1 (stereo unspecified),inactive,–
CCc1nc2c(OCc3ccc(Cl)cc3)cccn2c1N(C)C(=O)c1ccc(C)cc1,"inconclusive: 28.2 µM [inhibitor, single point]",–
O=C(O)C(Oc1ccc2cc(-c3ccc(Cl)cc3)c(=O)oc2c1)c1ccccc1 (stereo unspecified),–,inconclusive: -48.2% [inhibitor]

SMILES,Potency,"activity change, negative = inhibition"
COc1ccc(Nc2nnc(-c3ccc(C)c(S(=O)(=O)NCc4nc5ccccc5[nH]4)c3)c3ccccc23)cc1,"inconclusive: 22.4 µM [inhibitor, single point]",–
COc1cc(/C=C2/C(=O)NN(c3ccc(Cl)c(Cl)c3)C2=O)cc([N+](=O)[O-])c1O,inactive,–
CC(C)C[C@H](N)c1nnc(S(=O)(=O)Cc2ccc(F)cc2)o1,"inconclusive: 39.8 µM [inhibitor, single point]",–
Cc1cc(Br)c(OCc2ccc(C(=O)N/N=C3\CC4CC=CC34)cc2)c(Br)c1 (stereo unspecified),"inconclusive: 37.7 µM [inhibitor, single point]",–
COc1ccccc1CNc1nc(NCc2ccc3occc3c2)c2sccc2n1,"inconclusive: 22.4 µM [inhibitor, single point]",–
COc1ccc(C(C)=O)cc1CSc1nnc(C)s1,inactive,–
CCCCOC(=O)c1cc(=O)[nH]c2ccc(C)cc12,inactive,–
NC(c1csc(Nc2ccc(C(=O)c3ccccc3)cc2)n1)C1CCCCC1 (stereo unspecified),"inconclusive: 31.6 µM [inhibitor, single point]",–
COCCNC(=S)N/N=C(\C)c1ccc(Cl)s1,inactive,–
COc1ccc(CN(C)C(=O)c2cc(-c3ccccc3)nc3ccc(C)cc23)c(OC)c1OC,"inconclusive: 39.8 µM [inhibitor, partial curve, poor fit]",–
COc1ccc(CNC(=O)CN(C)S(=O)(=O)c2ccc3c(c2)OCCO3)cc1OC,inactive,–
O=C(N/N=C/c1ccccc1O)c1cccc(C(F)(F)F)c1,active: 3.16 µM,–
CCCCn1c(CCC)nc([N+](=O)[O-])c1Sc1ccc(Cl)cn1,"inconclusive: 39.8 µM [inhibitor, single point]",–
C/C(=N\NC(=O)c1c[nH]c2ccccc12)c1ccccn1,"inconclusive: 16.8 µM [inhibitor, single point]",–
COC(=O)C1=CN(C(C)C)C=C(C(=O)OC)C1c1cccc(OC)c1,inactive,–
O=C(CSCc1cccc(CSCC(=O)Nc2ccc3ccccc3c2)n1)Nc1ccc2ccccc2c1,"inconclusive: 28.2 µM [inhibitor, partial curve, poor fit]",–
CN1CCN(C2Cc3ccc(F)cc3Sc3cc(F)c(Cl)cc32)CC1 (stereo unspecified),"inconclusive: 31.6 µM [inhibitor, single point]",–
CN(CC1CCCN(CCc2cccc(C(F)(F)F)c2)C1)C(=O)c1ccco1 (stereo unspecified),inactive,–
Cc1cc(C)n(-c2nc(NCCO)c3c4c(sc3n2)CCCC4)n1,inactive,–
CCOC(=O)C(C)(C)N(Cc1cccc(C)c1)S(=O)(=O)c1ccc(Cl)c([N+](=O)[O-])c1,"inconclusive: 35.5 µM [inhibitor, single point]",–
CC(C)n1c(=S)[nH]c2c1c(=O)[nH]c(=O)n2C,inactive,–
COC(=O)c1ccc(NC(=O)c2nc(S(=O)(=O)Cc3cccc(C)c3)ncc2Cl)cc1,"inconclusive: 35.5 µM [inhibitor, single point]",–
